Here are results for 24 molecules from ChEMBL document CHEMBL4888484, “Replenishing the malaria drug discovery pipeline: Screening and hit evaluation of the MMV Hit Generation Library 1 (HGL1) against asexual blood stage Plasmodium falciparum ,using a nano luciferase reporter read-out” (2022).

Screen size: about 150,000 compounds; about 540 (0.36%) showed an effect of 50% or more. The list shows a part of the results.

The subject of the test is Plasmodium falciparum. The test can be described thus: Primary screen in NF54 nanoGlo assay, in single point, at 2uM, 72h; a lower Z score goes with more inhibition. The class given is functional, Erythrocyte. The settings on record: timepoint 72 hour.
Turning to `FC1(F)CC[C@H](c2nc(-c3cnc4ccccn34)no2)C1`, the “% Inhibition” value is on record as -10% and the Z score worked out at 1.27.
With `COCCCn1cc(-c2cccc(OC)n2)nn1`, the “% Inhibition” value is -11% and the Z score was 2.09.
Turning to `CN1CCCc2cc(C(=O)NCc3ccccc3)sc21`, the “% Inhibition” value is reported as -6% and the Z score came to 1.08.
`COc1ccc(-c2cc3cc(OC)c(OC)cc3c(-c3ccc(OC)cc3)n2)cc1`: the “% Inhibition” value is listed as -2% and the Z score is given as 0.4.
Turning to `Cc1ccc([C@@H]2CN(Cc3nnnn3C3CC3)CCO2)c(C)c1`, the “% Inhibition” value was determined as 2% and the Z score is recorded as -0.3.
The corresponding values for `O=C(c1ccc(C(F)(F)F)cc1N1CCCC1)N1CC2COCC(C1)O2` are -13% and 1.68.
On to `C[C@@H](Cn1cncn1)NC(=O)c1ccc(Oc2ccccc2)o1`, for which the “% Inhibition” value was -2% and the Z score was 0.38.
Take `Cc1ccc(-n2c(C)c(CNCCc3ccccc3Cl)c(C(=O)O)c2C)cc1`: the “% Inhibition” value was -7% and the Z score came out at 1.33.
Turning to `Cc1cc(-c2ccccc2N(C)C)nc(N2CCOCC2)n1`, the “% Inhibition” value was 6% and the Z score was -1.12.
For `Cc1cc(C)c(C(=O)NCCC2CCOC(C)C2)c(C)c1` (stereo not drawn), the “% Inhibition” value is reported as 0% and the Z score came out at 0.06.
The corresponding values for `Cc1cc(-c2noc(C3C[C@H]4C[C@@H](N)[C@H]4C3)n2)ccc1-n1cccn1` (stereo partly drawn) are 5% and -0.84.
For `CCc1cc(C(=O)N2CCN(CC)CC2)on1`, the “% Inhibition” value is listed as -14% and the Z score was 2.12.
`Cc1cnc(NCCN2C(=O)CCC2=O)nc1C`: the “% Inhibition” value was -10% and the Z score was determined as 1.24.
With `CC(C)CCN(C(=O)c1ccc2nccnc2n1)C1CCCC1`, the “% Inhibition” value is 0% and the Z score worked out at 0.05.
As for `COCC1CN(C(=O)NC2CC2c2ccccc2C(F)(F)F)CC(C)O1` (stereo not drawn), the “% Inhibition” value is recorded as -1% and the Z score was 0.24.
As to `C[C@H]1CN(c2ncnc3[nH]ncc23)CC2(CCC2)O1`, the “% Inhibition” value is reported as -10% and the Z score is 1.32.
On to `CCn1cc(CN2Cc3nc(C)[nH]c(=O)c3C2)cc1C#N`, for which the “% Inhibition” value worked out at 5% and the Z score was -0.85.
The corresponding values for `CC(C)c1cccc2c1CCN(C(=O)C1C[C@H]3C[C@@H](N)[C@H]3C1)C2` (stereo partly drawn) are -9% and 1.71.
Taken in the same sequence, the figures for `Cc1ccc(-n2cccn2)cc1NC(=O)N1CCCC1C1CCCO1` (stereo not drawn) were -8% and 0.96.
The corresponding values for `CCn1cnnc1CN(C)Cc1cc2n(n1)CCCN(C[C@H]1CCCO1)C2` are -5% and 0.88.
As to `CC(C)(C)OC(=O)N[C@@H]1CCCN(C(=O)c2cccc3[nH]ccc23)C1`, the “% Inhibition” value is -2% and the Z score is reported as 0.25.
Taken in the same sequence, the figures for `CCCS(=O)(=O)N1CCC[C@H](n2c(C)cnc2C2CC2)C1` were -6% and 0.76.
The corresponding values for `Cc1ccc(S(=O)(=O)N2CCC3(CC2)NC(=O)c2ccccc2N3)cc1C` are -13% and 1.28.
With `Cc1cccc(N2CCN(C(=O)c3cc4ccccn4n3)CC2)c1C`, the “% Inhibition” value is listed as -7% and the Z score amounted to 0.95.

The % Inhibition is the drop in the measured response relative to a control, in per cent.
